Results as given in the RNAGym collection of RNA variant scans (doi:10.7554/elife.90254).
Read counts are not given, so values of variants with three or more changes are uncertain.

B1: LINE1-mini (parent)
chain: GGCAGAGCUCAACACAGCGUGGCAAAGUGGCUGUGGCUAGACUGCC

Variants of: B1
Assay: self-cleavage, relative activity (ratio to wild type); higher = more cleavage; in vitro, sequencing; the parent is a self-cleaving ribozyme

Variant	self-cleavage
G5U C15A C18G A39C	0.01
G5U C15A G22U G44U	0.02
G5U C15A U32A	0.1
G5U C15A U43C	0
G5U C15G A24G	0.03
G5U C15G A25U	0.3
G5U C15G C45U	0.06
G5U C15G G44U	0.04
G5U C15G U20C G40U	0.01
G5U C15U C18A C23G	0.03
G5U C15U C18U A41G	0.01
G5U C15U C45G	0.07
G5U C15U G19U	0.04
G5U C15U G29A G30U	0.06
G5U C15U G29U	0.06
G5U C18A C23A G33A G40C	0.03
G5U C18A C23G	0.2
G5U C18A G27U C46A	0.03
G5U C18A U20A A41U C45A	0.01
G5U C18A U34G A41C	0
G5U C18A U38A	0.04

Variant	self-cleavage
G5U C18G C23U	0.02
G5U C18G G27C C31G G33U	0.04
G5U C18G G30C G33C	0.03
G5U C18G U28G A41G	0.04
G5U C18U G36C	0.02
G5U C18U U38C	0.04
G5U C23A C31U U32A	0.04
G5U C23G U43A	0.04
G5U C31G G35C A41U C45U	0.03
G5U C31U C37G	0.04
G5U C37A G40C	0.02
G5U G7A A26C G40A C46U	0.05
G5U G7A C13U A26U C31U G33C	0.18
G5U G7A C15U G30C	0.15
G5U G7C A26U G27A	0.06
G5U G7C C13G A26C	0.04
G5U G7C C15U A39C	0.19
G5U G7C C23G G36A	0.37
G5U G7C C42A	0.18
G5U G7C G29U	0.28
G5U G7C G30U G33U G35U	0.03

Variant	self-cleavage
G5U G7U A11U A12C	0.05
G5U G7U A12U A26C	0.12
G5U G7U C15G U20C	0.02
G5U G17A C23A G35A	0.03
G5U G17A G30U C42A	0.06
G5U G17A G33C	0.02
G5U G17C C46G	0.03
G5U G17U C18A G21C G22A C31U A39U C46A	0.07
G5U G17U G33A	0.12
G5U G17U U32C C42A C46G	0.05
G5U G19A A41G C45A	0.29
G5U G19A G21U A26G U32C C46U	0.03
G5U G19A G35A	0.1
G5U G19A U20G G30U	0.05
G5U G19C A25C G40U C46A	0.01
G5U G19C G21C A41U C42U	0.08
G5U G19C U32A U38G	0.11
G5U G19U A24C	0.04
G5U G19U A26G U28A U38G G44C	0.01
G5U G19U A26U U43C	0.02
G5U G19U C45G	0.01

Variant	self-cleavage
G5U G19U G22C G44C	0.04
G5U G19U G27U	0.04
G5U G19U U20A	0.05
G5U G21A G22C C23G A26U G33C C46A	0.03
G5U G21A G30U	0.18
G5U G21C C37A	0
G5U G21U A24U G30C C31U	0.05
G5U G21U A25G G30U	0.02
G5U G21U C23G	0.34
G5U G21U C37A	0.04
G5U G22A C23A	0.02
G5U G22A G35C G40U	0.04
G5U G22C A25C	0.02
G5U G22C A26G	0.04
G5U G22C C31A	0.05
G5U G22C C42A	0.53
G5U G22U C42G	0.03
G5U G22U G44C C46A	0.06
G5U G22U U32G	0.12
G5U G27A C31A U32C	0.02
